The other results are listed elsewhere or left out. The energies were worked out here from pooled read counts, against the library average; single values are noisy.
What follows are sequences tested against T1, Pho4 (S. cerevisiae) (UniProt P07270) (assay: relative binding free energy (BET-seq); higher = weaker binding). Conditions: reference: library average.
T1 sequence: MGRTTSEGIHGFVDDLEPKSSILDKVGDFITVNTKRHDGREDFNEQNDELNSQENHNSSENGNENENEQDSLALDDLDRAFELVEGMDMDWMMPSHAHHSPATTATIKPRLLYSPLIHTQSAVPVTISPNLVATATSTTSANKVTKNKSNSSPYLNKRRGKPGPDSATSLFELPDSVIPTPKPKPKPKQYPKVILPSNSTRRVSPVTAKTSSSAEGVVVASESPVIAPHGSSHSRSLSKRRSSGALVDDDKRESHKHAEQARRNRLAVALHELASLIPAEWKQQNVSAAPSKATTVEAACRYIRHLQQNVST

Sequence	relative binding free energy
GGAGGCACGTGGCGAG	-0.2 kcal/mol
GAGTACACGTGTCGGG	0.1 kcal/mol
TACATCACGTGGTTTG	0.16 kcal/mol
CGGTGCACGTGTCTGT	-0.05 kcal/mol
CTTGTCACGTGATGGC	0.24 kcal/mol
CGGTGCACGTGGTCGG	-0.1 kcal/mol
AAAGACACGTGTTTTA	0.09 kcal/mol
CGGTTCACGTGCGTGG	0.18 kcal/mol
CCTGGCACGTGGGCGT	-0.32 kcal/mol
AACGGCACGTGTTTTT	-0.13 kcal/mol
GTATGCACGTGTGTAA	-0.07 kcal/mol
TGAGGCACGTGAAGTG	0.3 kcal/mol
AGAGGCACGTGGGCGC	-0.22 kcal/mol
AGTGGCACGTGTATAG	-0.12 kcal/mol
TGTGTCACGTGGTTGA	0.04 kcal/mol
TACGACACGTGGTTTG	-0.03 kcal/mol
TATGACACGTGTTTTT	0.03 kcal/mol
GTTAACACGTGGCTGT	-0.03 kcal/mol
TCCAGCACGTGGGTTG	-0.09 kcal/mol
GTTCGCACGTGATTGT	-0.01 kcal/mol
GGATACACGTGGCTTG	0.1 kcal/mol
GGCTCCACGTGAGGGG	0.12 kcal/mol
TCGGACACGTGAGGGG	0.33 kcal/mol

Sequence	relative binding free energy
GCGTGCACGTGTTTGT	0.02 kcal/mol
TAGTGCACGTGTGTAG	0 kcal/mol
TGCGCCACGTGGGGGC	-0.24 kcal/mol
TTATTCACGTGTAAGG	0.23 kcal/mol
TATTGCACGTGTGAGG	0.03 kcal/mol
TTTGCCACGTGCAGGT	-0.21 kcal/mol
GTTCGCACGTGGGAGG	-0.05 kcal/mol
GTTGACACGTGCCAGG	0.04 kcal/mol
GGTGACACGTGGAGGC	0.03 kcal/mol
AATTTCACGTGTTAGC	0.29 kcal/mol
CGCGGCACGTGTTTAT	0.03 kcal/mol
TGAGTCACGTGTATCG	0.02 kcal/mol
ATGTTCACGTGGGCTG	0.08 kcal/mol
CATTACACGTGATGGT	0.26 kcal/mol
TTTATCACGTGAGGAA	0.39 kcal/mol
GTACACACGTGGAGGG	-0.02 kcal/mol
GTTCTCACGTGAGGTC	0.5 kcal/mol
GTTGTCACGTGAGCGA	0.19 kcal/mol
GTCGACACGTGGGAGG	-0.09 kcal/mol
GTAAGCACGTGCTTGT	-0.12 kcal/mol
TCAATCACGTGGTATG	0.05 kcal/mol
TTCGTCACGTGCAAGG	0.24 kcal/mol
CGGGTCACGTGCAGTA	0.14 kcal/mol

Sequence	relative binding free energy
TGTGCCACGTGAGGTA	0.13 kcal/mol
TTGGGCACGTGGTCAC	-0.25 kcal/mol
AACGGCACGTGTTTTG	-0.19 kcal/mol
TGATTCACGTGGGGAC	0.16 kcal/mol
TGGTACACGTGGTCAT	-0.03 kcal/mol
CGTTACACGTGGGGGA	-0.16 kcal/mol
TGTGCCACGTGGTCTT	-0.22 kcal/mol
GTTAACACGTGTATAG	0 kcal/mol
GTAATCACGTGAGGTC	0.37 kcal/mol
TTTTACACGTGCGAGT	-0.02 kcal/mol
GGGCGCACGTGTGTAG	-0.16 kcal/mol
CATGTCACGTGGGGTC	-0.11 kcal/mol
AGTTGCACGTGCCGTG	-0.1 kcal/mol
GGGGGCACGTGATTGA	0.07 kcal/mol
TGGATCACGTGTGGGA	0.29 kcal/mol
CTATTCACGTGTGTTT	0.35 kcal/mol
GCTATCACGTGATGTG	0.29 kcal/mol
GCGTTCACGTGGAGGC	0.37 kcal/mol
CGGTGCACGTGGCCGG	-0.1 kcal/mol
GGTGTCACGTGGCCTG	-0.01 kcal/mol
AGGTTCACGTGTGTAA	0.25 kcal/mol
TTTCGCACGTGGTTTA	-0.11 kcal/mol
GGGGACACGTGACTGG	0.23 kcal/mol

Sequence	relative binding free energy
TCTATCACGTGGCGGT	-0.06 kcal/mol
TGTCCCACGTGGTTGT	-0.22 kcal/mol
CGTTTCACGTGTAGGG	0.2 kcal/mol
TATGGCACGTGAACTG	0.07 kcal/mol
CGGGACACGTGTTTAG	0.05 kcal/mol
GCGTACACGTGGCGTG	0.19 kcal/mol
GGTCGCACGTGGTAAG	0 kcal/mol
AGGAGCACGTGCGGGT	-0.15 kcal/mol
AGTATCACGTGTACTT	0.15 kcal/mol
CTGGGCACGTGAACTG	0.29 kcal/mol
ACTGTCACGTGGTGGC	0.07 kcal/mol
GATGGCACGTGGTTAC	0.03 kcal/mol
TGGGACACGTGAGGGT	0.23 kcal/mol
GTTGGCACGTGGCCGG	-0.2 kcal/mol
TGTGCCACGTGTGTAT	-0.09 kcal/mol
TGTACCACGTGGAGTT	-0.08 kcal/mol
CATGGCACGTGCAGGG	-0.2 kcal/mol
TCATCCACGTGTGGGG	0.1 kcal/mol
TGTAACACGTGGGTAG	-0.11 kcal/mol
TGAGACACGTGGTTTT	0.09 kcal/mol
GGGTCCACGTGGTGGT	-0.02 kcal/mol
ATATTCACGTGACTTG	0.42 kcal/mol
CGGGTCACGTGCTGAG	0.17 kcal/mol

Sequence	relative binding free energy
CTTATCACGTGTGGGA	0.21 kcal/mol
TGGGTCACGTGATCGG	0.22 kcal/mol
GATAACACGTGGGTAG	-0.15 kcal/mol
GGGGACACGTGCTTGT	-0.09 kcal/mol
TCTTACACGTGAGGAT	0.37 kcal/mol
GGGTACACGTGCGTAT	-0.05 kcal/mol
GGGTCCACGTGATGTT	0.16 kcal/mol
ATCTGCACGTGTTTGT	-0.1 kcal/mol
GTTAGCACGTGGTAAG	0.07 kcal/mol
CGAGGCACGTGGCGTT	-0.03 kcal/mol
GTAGGCACGTGCGGTG	-0.27 kcal/mol
GGATACACGTGTAAGT	0.09 kcal/mol
GTCTTCACGTGACGGG	0.38 kcal/mol
TTGGACACGTGTTATC	0.14 kcal/mol
TAGTGCACGTGGGTCC	-0.18 kcal/mol
GGTGACACGTGGATTA	0.19 kcal/mol
TTCATCACGTGTCGGT	0.1 kcal/mol
AATATCACGTGCAGTT	0.17 kcal/mol
GGGTGCACGTGTAGAG	0.01 kcal/mol
TGCTTCACGTGGCGTG	0.31 kcal/mol
AGTTTCACGTGTCAAT	0.2 kcal/mol
CGATTCACGTGTAGTT	0.22 kcal/mol
TATATCACGTGTAAGT	0.23 kcal/mol
